Source: PMC4336329 (PLoS ONE, 2015)
About 14,000 (4.5%) of roughly 310,000 compounds showed an effect of 50% or more. The effect is printed as a negative number. This is one part of the list.

molecular target: human ether-à-go-go-related gene (hERG) potassium channel (human, UniProt Q12809); assay: primary screen, population patch clamp on CHO cells stably expressing hERG
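Also: peak tail current of the secondary pulse compared with the same well before compound.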

human ether-à-go-go-related gene (hERG) potassium channel, sequence (Q12809 whole entry, looked up): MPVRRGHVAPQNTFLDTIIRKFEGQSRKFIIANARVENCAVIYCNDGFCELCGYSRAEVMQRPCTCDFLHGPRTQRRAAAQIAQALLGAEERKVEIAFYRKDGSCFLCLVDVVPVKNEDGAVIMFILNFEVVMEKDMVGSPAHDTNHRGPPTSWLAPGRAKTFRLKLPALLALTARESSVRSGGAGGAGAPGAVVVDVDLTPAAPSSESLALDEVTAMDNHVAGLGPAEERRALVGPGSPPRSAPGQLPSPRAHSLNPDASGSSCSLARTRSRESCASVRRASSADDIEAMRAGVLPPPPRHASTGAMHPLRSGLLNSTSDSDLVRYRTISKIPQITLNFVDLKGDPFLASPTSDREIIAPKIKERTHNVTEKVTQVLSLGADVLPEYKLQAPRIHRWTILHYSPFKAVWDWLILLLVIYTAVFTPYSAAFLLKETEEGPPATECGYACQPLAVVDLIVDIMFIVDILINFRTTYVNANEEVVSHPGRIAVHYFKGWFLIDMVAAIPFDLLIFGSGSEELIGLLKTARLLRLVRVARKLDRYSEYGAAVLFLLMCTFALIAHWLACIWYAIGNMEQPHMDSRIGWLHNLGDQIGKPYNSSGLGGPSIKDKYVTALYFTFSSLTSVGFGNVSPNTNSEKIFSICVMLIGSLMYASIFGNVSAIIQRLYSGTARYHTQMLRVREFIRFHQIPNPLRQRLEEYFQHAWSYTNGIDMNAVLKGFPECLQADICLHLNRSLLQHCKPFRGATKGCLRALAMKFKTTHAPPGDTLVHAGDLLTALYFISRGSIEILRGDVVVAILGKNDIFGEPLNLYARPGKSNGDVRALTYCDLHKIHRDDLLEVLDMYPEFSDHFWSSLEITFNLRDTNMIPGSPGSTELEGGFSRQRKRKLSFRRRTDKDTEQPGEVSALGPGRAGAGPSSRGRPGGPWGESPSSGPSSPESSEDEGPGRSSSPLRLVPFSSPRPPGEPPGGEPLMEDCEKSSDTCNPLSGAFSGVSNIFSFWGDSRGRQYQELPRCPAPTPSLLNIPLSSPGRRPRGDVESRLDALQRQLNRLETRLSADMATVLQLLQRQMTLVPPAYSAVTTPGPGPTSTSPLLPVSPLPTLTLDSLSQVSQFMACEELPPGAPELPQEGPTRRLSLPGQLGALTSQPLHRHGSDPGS

| Structure (SMILES) | hERG current change (%, negative = inhibition) at 10uM [%] |
| --- | --- |
| COc1ccc(C2(C(=O)Nc3ccccc3)CCOCC2)cc1 | -14.2 |
| COc1cccc(CN2CCN(Cc3cc4ccccc4o3)CC2CCO)c1 (stereo not drawn) | -10.7 |
| CCOC(=O)c1sc(-c2ccccc2)nc1C | 8.42 |
| CN(C)S(=O)(=O)c1ccc(C(=O)Oc2cc(=O)[nH]c3ccccc23)cc1 | 15.4 |
| COc1cc(NC(=S)NCc2cccs2)cc(OC)c1 | -17.9 |
| O=C1NC(=O)/C(=C\c2ccsc2)N1 | 10.6 |
| CCCCc1c(C)nn(-c2nnc3c4ccccc4n(C)c3n2)c1C | -4.7 |
| CC(C)c1ccc(NC2(C#N)C(=O)Nc3ccccc32)cc1 (stereo not drawn) | 1.93 |
| CCCn1c(=N)c(S(=O)(=O)c2ccccc2)cc2c(=O)n3ccccc3nc21 | -15.6 |
| Cc1cccc(OCC(=O)Nc2ccc(N3CCN(S(C)(=O)=O)CC3)cc2)c1 | 12 |
| O=C(CSc1nnc2ccccn12)Nc1cccc(-c2nc3ccccc3s2)c1 | 10.6 |
| O=C(COc1ccc(C(=O)c2ccccc2)cc1)NC1CCCCC1 | 0.246 |
| CCOC(=O)c1c(NC(=O)C(C)Sc2c[nH]c3ccccc23)sc2c1CCC2 (stereo not drawn) | 18 |
| CC(C)C1(CCNC(=O)c2cccs2)CCOC(C)(C)C1 (stereo not drawn) | 3.64 |
| CCCCn1c(N)c(N(CC)C(=O)CCc2ccccc2)c(=O)[nH]c1=O | 17.9 |
| O=C(/C=C/c1ccc2c(c1)OCO2)c1c(O)n(CCc2ccccc2)c(=O)[nH]c1=O | 1.79 |
| Cc1sc2ccccc2c1CC1=NCCN1.O=C(O)C(=O)O | -24.1 |
| CCN(CC1COc2ccccc2O1)C(=S)Nc1ccccc1 (stereo not drawn) | -7.27 |
| Clc1cccc(CSc2nc3ccncc3[nH]2)c1 | -18.4 |
| Cc1cc(S(=O)(=O)n2ccnc2)c(Cl)cc1Cl | 25.1 |
| CC(=O)Nc1ccc(S(=O)(=O)N(C)CC(=O)N(C)Cc2sccc2C)cc1 | -8.15 |
| COc1ccc(CCNc2nc(=O)[nH]nc2C)cc1OC | 2.35 |
| CCOC(=O)c1ccc(Nc2nc(-c3cccnc3)nc3ccccc23)cc1 | -10.8 |

| Structure (SMILES) | hERG current change (%, negative = inhibition) at 10uM [%] |
| --- | --- |
| COC(=O)c1ccc(OCC(=O)N2CCCc3ccccc32)cc1 | 8.02 |
| CNS(=O)(=O)c1ccc2c(c1)NC(=O)C1CCCN21 (stereo not drawn) | 10.3 |
| O=C(O)c1ccc(OCCN2CCCC2=O)cc1 | 18.1 |
| O=C(NC1CCCC1)C(=O)c1c[nH]c2ccccc12 | 3.62 |
| CCOC(=O)Cn1c(=O)c2c(nc(Br)n2Cc2ccccc2Cl)n(C)c1=O | 2.47 |
| N#CCN1CCN(CC(=O)Nc2cccc3ccccc23)CC1 | 18.4 |
| CCc1nnc(NC(=O)CCn2cnc3ccccc3c2=O)s1 | 1.4 |
| O=C1C(=O)N(CCOCCO)C(c2ccccn2)/C1=C(\O)c1ccccc1 (stereo not drawn) | 7.48 |
| O=C(NCC1COc2ccccc2O1)C1CCN(S(=O)(=O)c2ccc(Cl)cc2)CC1 (stereo not drawn) | -41.1 |
| O=C(COC(=O)COc1ccc(Cl)cc1)NC1CC1 | 4.37 |
| O=C(CN(C1CCCCC1)S(=O)(=O)c1ccccc1)N1CCCC1 | -59.3 |
| O=C(COC(=O)/C=C/c1cccc(Cl)c1)NC1CC1 | 10.1 |
| CN(CC(=O)Nc1ccccc1)CC(=O)Nc1ccccc1Cl | -3.63 |
| C#CCOCCOCCOCCNc1nc(N2CCN(C(=O)CCCCCCCCCCNC(=O)[C@H](CO)n3cc(CCCSC)nn3)CC2)nc(N2CCN(C(=O)CCCCCCCCCCNC(=O)[C@H](CO)n3cc(CCCSC)nn3)CC2)n1 | 4.57 |
| CCN(CC)c1ccc(/C=N/Nc2nc(C)cc(=O)[nH]2)c(O)c1 | -1.18 |
| O=S(=O)(Cc1ccccc1)NCCc1ccc(F)cc1 | 8.08 |
| CNS(=O)(=O)c1ccc(NC(=O)c2ccccn2)cc1 | 19.1 |
| COC(=O)Cc1c(C)nc2nc[nH]n2c1=O | 14.4 |
| O=C(c1cc(-c2ccco2)nc2ccccc12)N(Cc1nnc(-c2ccc(Cl)cc2)o1)C1CC1 | -18.8 |
| CC1Cc2cc(/C(O)=C3/C(=O)C(=O)N(CC4CCCO4)C3c3ccco3)ccc2O1 (stereo not drawn) | 14.1 |
| Cc1cc(C)n(CC(O)COc2ccccc2[N+](=O)[O-])n1 (stereo not drawn) | 9.8 |
| COC(=O)c1cc(Oc2ccc(S(=O)(=O)N3CCOCC3)cc2[N+](=O)[O-])cc(C(=O)OC)c1 | -2.29 |
